The IC50 comes from the fitted curve, where viability falls to half of the control; fits outside the tested doses are given as limits. AUC sums up the same curve from the lowest dose to the 256-fold higher top dose; the more sensitive the line, the further below 1. Where the top dose is marked as inferred, it was derived from the fitted curves, not read from the paper.

AUC and IC50 data for 66 cell lines are collected here from the supplement of paper PMC4967469.

Compound in this experiment: CCn1cc(-c2ccnc3[nH]c(-c4cccc(CN(C)C)c4)cc23)c(-c2ccc(NC(=O)N(C)C)cc2)n1 [GSK1070916]
The experiment in a line: Viability of human cancer cell lines after 72 h of drug (GDSC screen). The settings on record: top dose inferred. Here is the method:
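Human cancer cell lines in 384-well plates, medium with 10% serum, drug for 72 h over a 256-fold dose range (nine 2-fold or five 4-fold steps up to the top dose). Adherent lines were fixed and stained with the nucleic acid dye Syto60, suspension lines read with resazurin; signal relative to control wells, capped at 0 and 100%. One two-parameter sigmoid per drug and line, fitted in a mixed model over all curves with the slope shared within a line.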
On to “SCC90 (head and neck, adherent, top dose 2.56 µM)”, for which the AUC turned out to be 0.685 and the half-maximal inhibitory concentration (IC50) was determined as 662 nM.
Taken in the same sequence, the figures for “SCC-3 (B-cell lymphoma, suspension, top dose 2.56 µM)” were 0.988 and above 2560 nM.
Taken in the same sequence, the figures for “SCC-4 (head and neck, adherent, top dose 2.56 µM)” were 0.974 and above 2560 nM.
Turning to “SCC-9 (head and neck, adherent, top dose 2.56 µM)”, the AUC is 0.847 and the IC50 was above 2560 nM.
Taken in the same sequence, the figures for “SCC-15 (head and neck, adherent, top dose 2.56 µM)” were 0.941 and above 2560 nM.
In the same order, the values of “SCC-25 (head and neck, adherent, top dose 2.56 µM)” are 0.881 and above 2560 nM.
In the same order, the values of “SCH (stomach, adherent, top dose 2.56 µM)” are 0.984 and above 2560 nM.
Consider “SF126 (glioma, adherent, top dose 2.56 µM)”, for which the AUC worked out at 0.97 and the IC50 is above 2560 nM.
Taken in the same sequence, the figures for “SF268 (glioma, adherent, top dose 2.56 µM)” were 0.884 and above 2560 nM.
Taken in the same sequence, the figures for “SF295 (glioma, adherent, top dose 2.56 µM)” were 0.928 and above 2560 nM.
In the same order, the values of “SF539 (glioma, adherent, top dose 2.56 µM)” are 0.945 and above 2560 nM.
As to “SH-4 (melanoma, adherent, top dose 2.56 µM)”, the AUC was 0.909 and the IC50 is above 2560 nM.
With “SHP-77 (small cell lung carcinoma, semi-adherent, top dose 2.56 µM)”, the AUC is 0.962 and the IC50 is above 2560 nM.
In the same order, the values of “SIG-M5 (acute myeloid leukaemia, suspension, top dose 2.56 µM)” are 0.157 and 21.5 nM.
“SIMA (neuroblastoma, adherent, top dose 2.56 µM)”: the AUC came out at 0.868 and the 50% inhibitory concentration (IC50) is above 2560 nM.
Take “SISO (cervix, adherent, top dose 2.56 µM)”: the AUC was determined as 0.932 and the concentration for half-maximal inhibition (IC50) is above 2560 nM.
Regarding “SJRH30 (rhabdomyosarcoma, adherent, top dose 2.56 µM)”, the AUC stood at 0.83 and the half-maximal inhibitory concentration (IC50) was 1680 nM.
“SJSA-1 (bone, adherent, top dose 2.56 µM)”: the AUC was 0.951 and the concentration for half-maximal inhibition (IC50) is above 2560 nM.
“SK-CO-1 (large intestine, adherent, top dose 2.56 µM)”: the AUC stood at 0.987 and the 50% inhibitory concentration (IC50) was above 2560 nM.
Consider “SK-ES-1 (Ewing sarcoma, semi-adherent, top dose 2.56 µM)”, for which the AUC amounted to 0.29 and the IC50 was 39.1 nM.
In the same order, the values of “SK-GT-4 (oesophagus, adherent, top dose 2.56 µM)” are 0.953 and above 2560 nM.
As to “SK-HEP-1 (liver, adherent, top dose 2.56 µM)”, the AUC came to 0.989 and the IC50 is above 2560 nM.
Taken in the same sequence, the figures for “SK-LMS-1 (soft tissue, adherent, top dose 2.56 µM)” were 0.903 and above 2560 nM.
In the same order, the values of “SK-LU-1 (lung adenocarcinoma, adherent, top dose 2.56 µM)” are 0.949 and above 2560 nM.
In the same order, the values of “SK-MEL-1 (melanoma, suspension, top dose 2.56 µM)” are 0.993 and above 2560 nM.
“SK-MEL-2 (melanoma, adherent, top dose 2.56 µM)”: the AUC amounted to 0.981 and the IC50 is above 2560 nM.
Taken in the same sequence, the figures for “SK-MEL-3 (melanoma, adherent, top dose 2.56 µM)” were 0.968 and above 2560 nM.
In the same order, the values of “SK-MEL-5 (melanoma, adherent, top dose 2.56 µM)” are 0.981 and above 2560 nM.
Taken in the same sequence, the figures for “SK-MEL-24 (melanoma, adherent, top dose 2.56 µM)” were 0.977 and above 2560 nM.
In the case of “SK-MEL-28 (melanoma, adherent, top dose 2.56 µM)”, the AUC is 0.989 and the half-inhibitory concentration (IC50) is above 2560 nM.
Taken in the same sequence, the figures for “SK-MEL-30 (melanoma, adherent, top dose 2.56 µM)” were 0.946 and above 2560 nM.
Turning to “SK-MES-1 (lung squamous cell carcinoma, adherent, top dose 2.56 µM)”, the AUC is 0.953 and the 50% inhibitory concentration (IC50) is above 2560 nM.
In the same order, the values of “SK-MG-1 (glioma, adherent, top dose 2.56 µM)” are 0.972 and above 2560 nM.
In the same order, the values of “SK-MM-2 (myeloma, suspension, top dose 2.56 µM)” are 0.867 and 2470 nM.
Turning to “SK-N-AS (neuroblastoma, adherent, top dose 2.56 µM)”, the AUC came to 0.85 and the IC50 turned out to be 2410 nM.
On to “SK-N-DZ (neuroblastoma, adherent, top dose 2.56 µM)”, for which the AUC was determined as 0.979 and the IC50 was above 2560 nM.
Taken in the same sequence, the figures for “SK-N-FI (neuroblastoma, adherent, top dose 2.56 µM)” were 0.803 and 1260 nM.
Taken in the same sequence, the figures for “SK-N-SH (neuroblastoma, adherent, top dose 2.56 µM)” were 0.913 and above 2560 nM.
In the same order, the values of “SK-PN-DW (Ewing sarcoma, adherent, top dose 2.56 µM)” are 0.549 and 219 nM.
Consider “SK-UT-1 (soft tissue, adherent, top dose 2.56 µM)”, for which the AUC was 0.987 and the 50% inhibitory concentration (IC50) was above 2560 nM.
In the same order, the values of “SKG-IIIa (cervix, adherent, top dose 2.56 µM)” are 0.973 and above 2560 nM.
“SKN (uterus, adherent, top dose 2.56 µM)”: the AUC amounted to 0.941 and the IC50 was above 2560 nM.
With “SKN-3 (head and neck, adherent, top dose 2.56 µM)”, the AUC was determined as 0.962 and the IC50 was above 2560 nM.
“SLVL (B-cell lymphoma, suspension, top dose 2.56 µM)”: the AUC was determined as 0.902 and the IC50 was above 2560 nM.
Taken in the same sequence, the figures for “SN12C (kidney, adherent, top dose 2.56 µM)” were 0.97 and above 2560 nM.
Regarding “SNB75 (glioma, adherent, top dose 2.56 µM)”, the AUC worked out at 0.964 and the concentration for half-maximal inhibition (IC50) is above 2560 nM.
In the same order, the values of “SNG-M (endometrium, adherent, top dose 2.56 µM)” are 0.84 and 1710 nM.
In the same order, the values of “SNU-61 (large intestine, adherent, top dose 2.56 µM)” are 0.927 and above 2560 nM.
With “SNU-81 (large intestine, adherent, top dose 2.56 µM)”, the AUC is 0.908 and the IC50 is above 2560 nM.
“SNU-175 (large intestine, suspension, top dose 2.56 µM)”: the AUC was 0.277 and the IC50 is 39.2 nM.
Taken in the same sequence, the figures for “SNU-182 (liver, adherent, top dose 10.24 µM)” were 0.208 and 84.3 nM.
In the same order, the values of “SNU-387 (liver, adherent, top dose 2.56 µM)” are 0.943 and above 2560 nM.
For the cell line “SNU-398 (liver, adherent, top dose 2.56 µM)”, the AUC was 0.531 and the IC50 turned out to be 195 nM.
Taken in the same sequence, the figures for “SNU-407 (large intestine, adherent, top dose 2.56 µM)” were 0.836 and 2110 nM.
In the same order, the values of “SNU-423 (liver, adherent, top dose 2.56 µM)” are 0.863 and above 2560 nM.
Taken in the same sequence, the figures for “SNU-449 (liver, adherent, top dose 2.56 µM)” were 0.809 and 1490 nM.
Take “SNU-475 (liver, adherent, top dose 2.56 µM)”: the AUC was 0.965 and the IC50 is above 2560 nM.
Take “SNU-1040 (large intestine, adherent, top dose 2.56 µM)”: the AUC amounted to 0.713 and the IC50 was 800 nM.
Taken in the same sequence, the figures for “SNU-C1 (large intestine, suspension, top dose 2.56 µM)” were 0.943 and above 2560 nM.
Taken in the same sequence, the figures for “SNU-C2B (large intestine, adherent, top dose 2.56 µM)” were 0.958 and above 2560 nM.
Taken in the same sequence, the figures for “SNU-C5 (large intestine, adherent, top dose 2.56 µM)” were 0.921 and above 2560 nM.
As to “ST486 (Burkitt lymphoma, suspension, top dose 2.56 µM)”, the AUC came to 0.086 and the IC50 is below 10 nM.
Taken in the same sequence, the figures for “STS-0421 (soft tissue, adherent, top dose 2.56 µM)” were 0.549 and 223 nM.
In the same order, the values of “SU8686 (pancreas, adherent, top dose 2.56 µM)” are 0.976 and above 2560 nM.
Taken in the same sequence, the figures for “SU-DHL-1 (anaplastic large cell lymphoma, suspension, top dose 2.56 µM)” were 0.989 and above 2560 nM.
In the case of “SU-DHL-4 (B-cell lymphoma, suspension, top dose 2.56 µM)”, the AUC is 0.997 and the 50% inhibitory concentration (IC50) is above 2560 nM.
